About 800 (1.6%) of roughly 50,000 compounds showed an effect of 50% or more. Some of the results follow.
Each compound was assayed against Bcl-2-like protein 10 (Homo sapiens) (UniProt Q9HD36) (assay: Phenotype converters, Bcl-B/TR3 peptide binding displacement, primary biochemical FP (AID 1240;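 also: 0% = Bcl-B with tracer peptide and DMSO and 100% = tracer peptide lacking Bcl-B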)). Settings: GST-Bcl-B / FITC-TR3 peptide fluorescence polarization; stronger effect = higher value; compound at 3.75 mg/L.
UniProt Q9HD36, sequence (Q9HD36 whole entry, looked up): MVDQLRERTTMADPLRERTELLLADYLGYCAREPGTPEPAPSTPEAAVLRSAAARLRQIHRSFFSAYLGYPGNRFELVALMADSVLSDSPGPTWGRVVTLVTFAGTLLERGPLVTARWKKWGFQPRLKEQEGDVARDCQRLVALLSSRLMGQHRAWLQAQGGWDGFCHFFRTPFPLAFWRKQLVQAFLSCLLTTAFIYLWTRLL

Compound	displacement [%]
CS(=O)(=O)N(CC(=O)N1CCOCC1)c1ccccc1Br	10.2
COc1ccc(COC(=O)C2=C(C)NC(=O)NC2c2ccccc2F)cc1 (stereo not given)	2.3
Cc1cccc(C)c1NC(=O)c1ccc(C2SCC(=O)N2Cc2ccccc2)cc1 (stereo not given)	-5.1
O=C(NC(=S)Nc1ccc2oc(-c3ccc(F)cc3)nc2c1)c1ccco1	35.5
CC(=O)NN1C(=O)/C(=C/c2ccc(Br)o2)SC1=S	0.4
CCOC(=O)NC(Nc1cc(F)ccc1C)(C(F)(F)F)C(F)(F)F	4.3
CC1=C(C(=O)Nc2ccccc2)C(c2ccccc2Br)NC(=S)N1 (stereo not given)	-1.9
Cc1ccc(C)c(S(=O)(=O)Nc2ccc(C)c(C)c2)c1	16.2
NC(=O)c1ccc(Oc2ccc([N+](=O)[O-])cc2)cc1	1.2
COc1ccc(N2C(=O)C3C(C2=O)N2CCCN2C3c2ccc(Cl)cc2)cc1 (stereo not given)	-0.1
COc1ccc(NC(=O)C2CC(=O)N(c3ccc(Br)cc3)C2)c(OC)c1 (stereo not given)	9.5
Brc1ccc2ncnc(NCc3cccnc3)c2c1	1.9
O=C(O)/C=C/C(=O)Nc1ccc(C2(c3ccc(NC(=O)/C=C/C(=O)O)cc3)c3ccccc3-c3ccccc32)cc1	11.8
COc1cc(NC(=O)c2cccc([N+](=O)[O-])c2)ccc1NC(=O)c1ccco1	8.7
CCOc1ccc(C(NC(=O)c2ccc(F)cc2)c2ccc(OC)c(OC)c2)cc1 (stereo not given)	2.1
COC(=O)c1ccc(NC(=O)c2ccc(F)cc2)cc1	-1.9
COc1ccc(S(=O)(=O)N/N=C/c2cn(Cc3ccccc3)c3ccccc23)cc1	-4.1
CCOC(=O)CNC(=O)c1ccc(C#CC(C)(C)O)cc1	-14.2
NNC(=O)COc1ccccc1OCCOCCOc1ccccc1OCC(=O)NN	-10.4
Oc1c(N=Nc2cc(C(F)(F)F)ccc2Cl)sc2ccccc12	-18.9
CCOc1cc(/C=N/NC(=O)c2cc(C)[nH]n2)ccc1Oc1ccc([N+](=O)[O-])cc1[N+](=O)[O-]	0.4
COC(=O)C1=CNC=C(C(=O)OC)C1c1ccc(C)cc1	3.5
CS(=O)(=O)N(CC(=O)O)c1ccc(Cl)cc1	11.4
O=C(NCCC1=CCCCC1)c1ccc([N+](=O)[O-])cc1	5.7

Compound	displacement [%]
COc1ccc(Br)cc1C(=O)Nc1ccc(-c2nc3ccccc3s2)c(O)c1	2.3
O=C(Nc1cc([N+](=O)[O-])ccc1O)c1cccc2ccccc12	2.7
COc1ccc(NCn2nnc3ccccc32)c([N+](=O)[O-])c1	1.4
COc1ccc(S(=O)(=O)Nc2ccc([N+](=O)[O-])cc2C)cc1	-13.5
COc1ccc(/C=N/Nc2nnc3c(n2)[nH]c2ccc(C)cc23)cc1OC	4.5
CC(=O)COc1ccc2c(oc(=O)c3ccccc32)c1C	9.4
COc1cc(/C=N/NC(=O)c2sc(N)nc2C)ccc1O	-28.2
Cn1cc(/C=C2/SC(=S)N(c3cccc(Cl)c3)C2=O)c2ccccc21	-2
COc1ccc(OC)c(NC(=O)CN(c2cccc(Cl)c2)S(=O)(=O)c2ccccc2)c1	8
O=C1/C(=C\c2ccc(-c3ccc([N+](=O)[O-])cc3)o2)SC(=S)N1c1ccc(O)cc1	13.7
O=C(/C=C/Nc1cc(Cl)ccc1O)c1cccs1	-2.3
O=C(CSc1nnc(-c2ccc(Cl)cc2Cl)o1)Nc1ccccc1	-1.1
COC(=O)c1ccccc1NC(=O)c1cc(I)ccc1Cl	-4.1
CCOc1cc(C(=O)Nc2c(C)ccc3nsnc23)cc(OCC)c1OCC	-2.7
CCN(CC)Cc1c(O)ccc2c(C)cc(=O)oc12	-7.1
Cc1ccc(OCC(=O)NC(C)C)cc1	1.1
COc1ccc(CCC(=O)Nc2cc([N+](=O)[O-])ccc2C)cc1	-3.2
CSc1nc(=O)n(-c2ccc3ccccc3c2)c(C)c1C(C)=O	15.9
Cc1ccc(-c2cc(NC(=O)c3ccc(Cl)cc3)n[nH]2)cc1	0.9
O=C(Nc1ccc(Cl)cc1)C(c1ccccc1)c1ccccc1	-2.7
COc1ccccc1OCCCCOc1ccc(Cl)c(C)c1	15.9
CCOC(=O)C1=C(C)NC(=S)NC1c1ccc(O)cc1 (stereo not given)	0
S=C(c1ccc(-c2ccc(Cl)c(Cl)c2)o1)N1CCCCC1	11.8
O=C(/C=C/c1ccc2c(c1)OCO2)c1ccc(I)cc1	6.2

Compound	displacement [%]
COc1ccc(/C=C2/C(C)=C(C#N)c3nc(N)c(C#N)c(C)c32)cc1Br	12.9
CCOc1cc(OCC)cc(C(=O)Nc2cc(C)ccc2C)c1	1.5
CN1CCN(CC(=O)N2CCn3c4c(c5cc(C6CCCCC6)ccc53)CCCC42)CC1 (stereo not given)	60.9
CC1(C)Cc2c(sc3nc(-c4ccccc4)oc(=O)c23)CO1	-2.5
O=C(CN(c1cccc(Cl)c1)S(=O)(=O)c1ccccc1)N/N=C/c1cccnc1	0.6
O=C(COc1ccccc1Cl)NCc1cccnc1	-0.3
COc1ccc(Cl)cc1C(=O)Nc1sc2c(c1C(N)=O)CCC(C)C2 (stereo not given)	2.4
COc1ccc(-c2nnc(NC(=O)c3ccc([N+](=O)[O-])c(Cl)c3)s2)cc1	-5.9
COc1ccccc1C1NC(=O)NC(C)=C1C(=O)OC1CCCCCCC1 (stereo not given)	3.7
COc1ccc(-n2c(O)c(C=Nc3cccc(F)c3)c(=O)[nH]c2=O)cc1	-3.2
CCOC(=O)c1c(NC(=O)c2cc(Cl)ccc2[N+](=O)[O-])sc(C(=O)N(CC)CC)c1C	-1.1
O=C(Cc1ccc(Cl)cc1)NNS(=O)(=O)c1ccccc1	8.3
Cc1cc(Cl)ccc1OC(C)C(=O)Nc1sc2c(c1C(N)=O)CCCC2 (stereo not given)	-5.3
COc1ccc(NC(=O)c2cccc(NC(=O)C(C)(C)C)c2)cc1	1.3
CC(=O)C12CCCCC1CC1C3CC=C4CC(O)CCC4(C)C3CCC12C (stereo not given)	4.4
CS(=O)(=O)N1CCN(Cc2ccccc2C(F)(F)F)CC1	11
O=c1c(Cc2ccccc2)c(O)nc2n1CCS2	-0.4
Cc1ccc(-c2ccc(C=C3C(=O)NC(=O)NC3=O)o2)c(Br)c1	-9.6
CC(CNC(=O)c1cccs1)c1ccccc1 (stereo not given)	2.3
CC(=O)c1c(C)nn2c3ccccc3n(CCN3CCCCC3)c12	-3.7
O=C(Nc1nc(-c2cccc([N+](=O)[O-])c2)cs1)c1ccc(S(=O)(=O)N2CCCC2)cc1	-12.3
N/C(=N\OC(=O)c1ccccc1F)c1ccccc1	-5.9
